The text below walks through data of publication PMC4336329 (PLoS ONE, 2015).

The whole screen tested about 310,000 compounds, of which about 14,000 (4.5%) showed an effect of 50% or more. Effects have a minus sign here. This is one part of the list.
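Note: peak tail current of the secondary pulse compared with the same well before compound.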

The target in this assay is human ether-à-go-go-related gene (hERG) potassium channel (human, UniProt Q12809). Briefly: primary screen, population patch clamp on CHO cells stably expressing hERG.
Sequence of human ether-à-go-go-related gene (hERG) potassium channel (Q12809 whole entry, looked up): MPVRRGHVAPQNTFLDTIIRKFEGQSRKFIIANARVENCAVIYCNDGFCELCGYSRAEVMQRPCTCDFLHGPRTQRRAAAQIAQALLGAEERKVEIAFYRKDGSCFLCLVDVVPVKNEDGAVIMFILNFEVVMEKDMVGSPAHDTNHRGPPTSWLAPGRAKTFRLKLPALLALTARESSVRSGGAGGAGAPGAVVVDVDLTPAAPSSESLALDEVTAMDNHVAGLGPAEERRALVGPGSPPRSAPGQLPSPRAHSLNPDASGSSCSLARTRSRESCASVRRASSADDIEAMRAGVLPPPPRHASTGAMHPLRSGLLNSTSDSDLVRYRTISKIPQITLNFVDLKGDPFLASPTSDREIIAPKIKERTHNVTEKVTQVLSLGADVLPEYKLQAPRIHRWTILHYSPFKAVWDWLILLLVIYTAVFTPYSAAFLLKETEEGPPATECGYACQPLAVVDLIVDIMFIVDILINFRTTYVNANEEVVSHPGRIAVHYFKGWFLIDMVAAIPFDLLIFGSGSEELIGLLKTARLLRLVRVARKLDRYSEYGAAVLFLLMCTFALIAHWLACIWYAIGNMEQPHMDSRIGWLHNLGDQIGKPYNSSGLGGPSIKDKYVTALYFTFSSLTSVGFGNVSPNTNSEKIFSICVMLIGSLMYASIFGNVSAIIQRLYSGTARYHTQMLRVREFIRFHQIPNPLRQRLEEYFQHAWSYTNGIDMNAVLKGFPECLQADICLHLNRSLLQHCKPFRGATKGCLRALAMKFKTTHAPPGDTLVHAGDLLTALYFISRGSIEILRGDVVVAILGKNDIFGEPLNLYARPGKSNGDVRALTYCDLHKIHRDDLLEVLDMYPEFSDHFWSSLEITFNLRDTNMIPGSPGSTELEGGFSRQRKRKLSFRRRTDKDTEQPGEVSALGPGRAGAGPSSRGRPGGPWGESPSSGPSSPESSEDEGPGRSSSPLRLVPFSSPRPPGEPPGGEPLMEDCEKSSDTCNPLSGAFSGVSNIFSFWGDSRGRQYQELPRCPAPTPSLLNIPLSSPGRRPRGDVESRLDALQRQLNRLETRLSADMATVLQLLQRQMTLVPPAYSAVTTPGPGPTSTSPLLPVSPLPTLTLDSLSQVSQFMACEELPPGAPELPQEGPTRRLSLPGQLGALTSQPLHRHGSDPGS
Consider `CC(=O)c1ccccc1NS(=O)(=O)c1cccc2nonc12`, for which the “hERG current change (%, negative = inhibition) at 10uM” value is recorded as -52.2%. In the case of `Cc1ccc(CC(=O)NCC(c2ccco2)N(C)C)cc1C` (centres unmarked), the “hERG current change (%, negative = inhibition) at 10uM” value is 4.43%. Regarding `Cn1c(N)c(C(=O)c2ccccc2)c(=O)n(C)c1=O`, the “hERG current change (%, negative = inhibition) at 10uM” value was 8.98%.

Take `O=C(Cn1ccc(NC(=O)OCc2ccccc2)nc1=O)NCCCN1CCCC1=O`: the “hERG current change (%, negative = inhibition) at 10uM” value was determined as 4.62%. In the case of `NC(=O)c1c(NC(=O)c2cccs2)sc2c1CCCCCC2` it was -4.02%.

Take `NC(=O)c1ccc(NC(=O)CC23CC4CC(CC(Br)(C4)C2)C3)cc1`: the “hERG current change (%, negative = inhibition) at 10uM” value is listed as 16%. For `CN(C)C=Nc1ccc2nn(-c3ccccc3)nc2c1`, the “hERG current change (%, negative = inhibition) at 10uM” value is listed as -49.9%.

As for `Cc1ccccc1OCCC(=O)OCC(=O)NCCNC(=O)COC(=O)CCOc1ccccc1C`, the “hERG current change (%, negative = inhibition) at 10uM” value worked out at 4.47%. With `NC(=O)c1cc(S(=O)(=O)NCCCc2ccccc2)cs1`, the “hERG current change (%, negative = inhibition) at 10uM” value is recorded as 2.34%. For `COc1ccc(NS(=O)(=O)c2cccc(C(=O)NCC(c3ccccc3OC)N3CCCC3)c2)cc1` (centres unmarked), the “hERG current change (%, negative = inhibition) at 10uM” value is given as -55.4%.

In the case of `Cc1nnc(NC(=O)c2cccc(Br)c2)s1`, the “hERG current change (%, negative = inhibition) at 10uM” value is given as -1.04%. Regarding `CCOC(=O)c1cc2c(nc1NC(=S)NCc1ccccc1)CCCC2`, the “hERG current change (%, negative = inhibition) at 10uM” value was -11.3%.

Consider `Cn1c(-c2ccc3c(c2)OCO3)cc(=O)c2ccccc21`, for which the “hERG current change (%, negative = inhibition) at 10uM” value was -3.23%. As to `CC12CCC(C(=O)Nc3cccnc3)(CC1=O)C2(C)C` (centres unmarked), the “hERG current change (%, negative = inhibition) at 10uM” value turned out to be 11.6%.

Take `COCCn1c(C)cc(C(=O)CSc2nnc(C3CC3)n2C2CC2)c1C`: the “hERG current change (%, negative = inhibition) at 10uM” value came to 5.4%. Regarding `COC(=O)N/N=C/c1cn(CC(C)COc2ccccc2)c2ccccc12` (centres unmarked), the “hERG current change (%, negative = inhibition) at 10uM” value was determined as 16.6%. For `CC(C)(C)c1ccc(C(=O)Nc2nonc2-c2nc3ccccc3[nH]2)cc1`, the “hERG current change (%, negative = inhibition) at 10uM” value came to 12.8%. In the case of `CC1(C)CC(=O)C2=C(C1)OC(N)=C(C#N)[C@@]21C(=O)N(CC(N)=O)c2ccccc21`, the “hERG current change (%, negative = inhibition) at 10uM” value amounted to 12.1%. For the molecule `CCOC(=O)CC1C(=O)NCCN1C(=O)c1cc2c(=O)n3ccccc3nc2s1` (centres unmarked), the “hERG current change (%, negative = inhibition) at 10uM” value was determined as 0.456%. The same measure for `CCCN(CCC)CCNc1c(N2CCN(C(=O)OCC)CC2)c(=O)c1=O`: -32.4%. For the molecule `COc1ccc(OC)c(/C=N/NC(=O)c2cnccn2)c1`, the “hERG current change (%, negative = inhibition) at 10uM” value came out at 1.45%. On to `Cc1ccc(OCc2n[nH]c(=S)n2-c2ccc(C)cc2)cc1`, for which the “hERG current change (%, negative = inhibition) at 10uM” value was 13.1%. As to `COc1ccc(C(=O)CSc2nnc3ccc(-c4ccccn4)nn23)cc1`, the “hERG current change (%, negative = inhibition) at 10uM” value is given as 15%. With `Cl.OCCNCc1ccc(-c2ccccc2)cc1`, the “hERG current change (%, negative = inhibition) at 10uM” value was -9.74%.

In the case of `COc1ccc2cc(C(=O)O)ccc2c1`, the “hERG current change (%, negative = inhibition) at 10uM” value is -9.21%. With `Cc1nn(-c2ccccc2)c2nc(C(F)F)cc(C(F)F)c12`, the “hERG current change (%, negative = inhibition) at 10uM” value turned out to be 16.2%.
